AUC and IC50 data for 43 cell lines are collected here from the supplement of paper PMC4967469.

pIC50: −log10 of the molar value. IC50 is the fitted dose that halves viability relative to control wells, and lower means more sensitive; where the fit passes the top or lowest dose, that dose stands as a limit. AUC sums up the same curve from the lowest dose to the 256-fold higher top dose; it is 1 without any effect and falls as sensitivity rises. Where the top dose is marked as inferred, it comes from the curve model; the source does not state it. A value given as a limit tells only on which side of the number the result lay.

Compound in the assay: CCn1cc(-c2ccnc3[nH]c(-c4cccc(CN(C)C)c4)cc23)c(-c2ccc(NC(=O)N(C)C)cc2)n1 [GSK1070916]
Kind of assay: Viability of human cancer cell lines after 72 h of drug (GDSC screen). Particulars: top dose inferred. As for the experimental part:
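Human cancer cell lines in 384-well plates, medium with 10% serum, drug for 72 h over a 256-fold dose range (nine 2-fold or five 4-fold steps up to the top dose). Adherent lines were fixed and stained with the nucleic acid dye Syto60, suspension lines read with resazurin; signal relative to control wells, capped at 0 and 100%. One two-parameter sigmoid per drug and line, fitted in a mixed model over all curves with the slope shared within a line.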
For orientation: pIC50 means the negative decadic logarithm of the IC50, by convention in mol/L. Consider “NCI-H1437 (lung adenocarcinoma, adherent, top dose 2.56 µM)”, for which the AUC came out at 0.954 and the pIC50 is less than 5.59.
For “NCI-H1563 (lung adenocarcinoma, adherent, top dose 2.56 µM)”, in that order: 0.961 and less than 5.59.
For “NCI-H1568 (lung adenocarcinoma, adherent, top dose 2.56 µM)”, in that order: 0.96 and less than 5.59.
On the same counts, the results for “NCI-H1573 (lung adenocarcinoma, adherent, top dose 2.56 µM)” are 0.99 and less than 5.59.
Regarding “NCI-H1581 (large cell lung carcinoma, semi-adherent, top dose 2.56 µM)”, the AUC was found to be 0.763 and the pIC50 was 6.07.
For “NCI-H1623 (lung adenocarcinoma, adherent, top dose 2.56 µM)”, in that order: 0.985 and less than 5.59.
On the same counts, the results for “NCI-H1648 (lung adenocarcinoma, adherent, top dose 2.56 µM)” are 0.973 and less than 5.59.
On to “NCI-H1651 (lung adenocarcinoma, adherent, top dose 2.56 µM)”, for which the AUC stood at 0.987 and the pIC50 was less than 5.59.
For “NCI-H1666 (lung adenocarcinoma, semi-adherent, top dose 2.56 µM)”, in that order: 0.953 and less than 5.59.
For “NCI-H1688 (small cell lung carcinoma, adherent, top dose 2.56 µM)”, in that order: 0.978 and less than 5.59.
For “NCI-H1693 (lung adenocarcinoma, adherent, top dose 2.56 µM)”, in that order: 0.953 and less than 5.59.
For “NCI-H1694 (small cell lung carcinoma, suspension, top dose 2.56 µM)”, the AUC was determined as 0.872 and the pIC50 is 5.61.
With “NCI-H1703 (lung adenocarcinoma, adherent, top dose 2.56 µM)”, the AUC was found to be 0.897 and the negative-log IC50 (pIC50) is less than 5.59.
On the same counts, the results for “NCI-H1734 (lung adenocarcinoma, adherent, top dose 2.56 µM)” are 0.898 and less than 5.59.
Take “NCI-H1755 (lung adenocarcinoma, adherent, top dose 2.56 µM)”: the AUC was determined as 0.853 and the negative logarithm of the IC50 (pIC50) was 5.60.
On the same counts, the results for “NCI-H1781 (lung adenocarcinoma, adherent, top dose 2.56 µM)” are 0.971 and less than 5.59.
On the same counts, the results for “NCI-H1792 (lung adenocarcinoma, adherent, top dose 2.56 µM)” are 0.914 and less than 5.59.
On the same counts, the results for “NCI-H1793 (lung adenocarcinoma, adherent, top dose 2.56 µM)” are 0.982 and less than 5.59.
Take “NCI-H1836 (small cell lung carcinoma, suspension, top dose 2.56 µM)”: the AUC was determined as 0.932 and the pIC50 was less than 5.59.
For “NCI-H1838 (lung adenocarcinoma, adherent, top dose 2.56 µM)”, in that order: 0.979 and less than 5.59.
For “NCI-H1869 (lung squamous cell carcinoma, adherent, top dose 2.56 µM)”, in that order: 0.967 and less than 5.59.
On the same counts, the results for “NCI-H1876 (small cell lung carcinoma, adherent, top dose 2.56 µM)” are 0.832 and 5.78.
On to “NCI-H1915 (large cell lung carcinoma, adherent, top dose 2.56 µM)”, for which the AUC amounted to 0.931 and the pIC50 was less than 5.59.
As for “NCI-H1944 (lung adenocarcinoma, adherent, top dose 2.56 µM)”, the AUC stood at 0.861 and the pIC50 was 5.62.
For “NCI-H1975 (lung adenocarcinoma, adherent, top dose 2.56 µM)”, in that order: 0.906 and less than 5.59.
For “NCI-H1993 (lung adenocarcinoma, adherent, top dose 2.56 µM)”, in that order: 0.968 and less than 5.59.
For “NCI-H2009 (lung adenocarcinoma, adherent, top dose 2.56 µM)”, the AUC was 0.987 and the negative logarithm of the IC50 (pIC50) was less than 5.59.
For “NCI-H2023 (lung adenocarcinoma, adherent, top dose 2.56 µM)”, in that order: 0.964 and less than 5.59.
Turning to “NCI-H2029 (small cell lung carcinoma, adherent, top dose 2.56 µM)”, the AUC was determined as 0.991 and the pIC50 was less than 5.59.
For “NCI-H2030 (lung adenocarcinoma, adherent, top dose 2.56 µM)”, in that order: 0.912 and less than 5.59.
For “NCI-H2052 (mesothelioma, adherent, top dose 2.56 µM)”, in that order: 0.968 and less than 5.59.
On the same counts, the results for “NCI-H2081 (small cell lung carcinoma, suspension, top dose 2.56 µM)” are 0.278 and 7.44.
Take “NCI-H2085 (lung adenocarcinoma, adherent, top dose 2.56 µM)”: the AUC worked out at 0.934 and the pIC50 was less than 5.59.
In the case of “NCI-H2087 (lung adenocarcinoma, semi-adherent, top dose 2.56 µM)”, the AUC came to 0.856 and the negative logarithm of the IC50 (pIC50) was 5.64.
In the case of “NCI-H2110 (non-small cell lung carcinoma, adherent, top dose 2.56 µM)”, the AUC came to 0.967 and the pIC50 is less than 5.59.
On the same counts, the results for “NCI-H2122 (lung adenocarcinoma, adherent, top dose 2.56 µM)” are 0.977 and less than 5.59.
On the same counts, the results for “NCI-H2135 (non-small cell lung carcinoma, adherent, top dose 2.56 µM)” are 0.978 and less than 5.59.
On to “NCI-H2141 (small cell lung carcinoma, suspension, top dose 2.56 µM)”, for which the AUC was 0.915 and the negative-log IC50 (pIC50) is less than 5.59.
On the same counts, the results for “NCI-H2170 (lung squamous cell carcinoma, adherent, top dose 2.56 µM)” are 0.939 and less than 5.59.
On the same counts, the results for “NCI-H2171 (small cell lung carcinoma, suspension, top dose 2.56 µM)” are 0.041 and greater than 8.00.
On the same counts, the results for “NCI-H2172 (non-small cell lung carcinoma, adherent, top dose 2.56 µM)” are 0.977 and less than 5.59.
For the cell line “NCI-H2196 (small cell lung carcinoma, adherent, top dose 2.56 µM)”, the AUC was found to be 0.97 and the pIC50 is less than 5.59.
For the cell line “NCI-H2227 (small cell lung carcinoma, semi-adherent, top dose 2.56 µM)”, the AUC came out at 0.161 and the pIC50 is 7.91.
